Reference: US20230052528A1 (priority 2019, published 2023)

Molecular target: T1, Taspase-1 in transfected HEK-293T cells (Homo sapiens, UniProt Q9H6P5)
T1 sequence (Q9H6P5 1-233 limits assumed): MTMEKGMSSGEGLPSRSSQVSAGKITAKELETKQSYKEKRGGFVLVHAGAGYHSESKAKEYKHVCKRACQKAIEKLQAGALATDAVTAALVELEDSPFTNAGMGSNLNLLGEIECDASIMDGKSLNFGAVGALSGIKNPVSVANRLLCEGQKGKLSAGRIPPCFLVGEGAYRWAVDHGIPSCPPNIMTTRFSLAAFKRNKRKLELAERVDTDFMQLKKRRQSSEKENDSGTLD
T1 sequence (Q9H6P5 234-420 limits assumed): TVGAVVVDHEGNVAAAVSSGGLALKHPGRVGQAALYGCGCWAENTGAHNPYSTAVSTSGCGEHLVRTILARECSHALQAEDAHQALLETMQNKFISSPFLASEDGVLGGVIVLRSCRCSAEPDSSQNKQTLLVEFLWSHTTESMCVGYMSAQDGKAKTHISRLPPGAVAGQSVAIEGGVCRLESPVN
Experiment: cell-based

SMILES | IC50 [µM]
C=CS(=O)(=O)N1CCN(Cc2ccc(OC(F)(F)F)c(F)c2)[C@@H](CCO)C1 [SMDC069, 2-[(2S)-4-(ethenesulfonyl)-1-{[3-fluoro-4-(trifluoromethoxy)phenyl]methyl}piperazin-2-yl]ethan-1-ol] | 2 to 6
C=CS(=O)(=O)N1CCN(Cc2ccc(OC(F)(F)F)c(F)c2)[C@@H](COCc2cn[nH]c2)C1 [SMDC203, (R)-2-(((1H-pyrazol-4-yl)methoxy)methyl)-1-(3-fluoro-4-(trifluoromethoxy)benzyl)-4-(vinylsulfonyl)piperazine] | 2.3
